According to the supplement of paper PMC3334620:
The full ranking holds about 33,000 sequences; the median of “E-score (-0.5 to 0.5)” is about -0.035, and the highest 2% start at about 0.34. Some of the results follow.

What follows are sequences tested against T1, Mot3 (UniProt P54785) (assay: PBM E-score (8-mer binding enrichment) (E-score (-0.5 to 0.5)); higher = stronger / more preferred TF binding; most listed sequences are background and not binding sites). Details: protein concentration: 200 nM; construct: GST-full length.
T1 sequence: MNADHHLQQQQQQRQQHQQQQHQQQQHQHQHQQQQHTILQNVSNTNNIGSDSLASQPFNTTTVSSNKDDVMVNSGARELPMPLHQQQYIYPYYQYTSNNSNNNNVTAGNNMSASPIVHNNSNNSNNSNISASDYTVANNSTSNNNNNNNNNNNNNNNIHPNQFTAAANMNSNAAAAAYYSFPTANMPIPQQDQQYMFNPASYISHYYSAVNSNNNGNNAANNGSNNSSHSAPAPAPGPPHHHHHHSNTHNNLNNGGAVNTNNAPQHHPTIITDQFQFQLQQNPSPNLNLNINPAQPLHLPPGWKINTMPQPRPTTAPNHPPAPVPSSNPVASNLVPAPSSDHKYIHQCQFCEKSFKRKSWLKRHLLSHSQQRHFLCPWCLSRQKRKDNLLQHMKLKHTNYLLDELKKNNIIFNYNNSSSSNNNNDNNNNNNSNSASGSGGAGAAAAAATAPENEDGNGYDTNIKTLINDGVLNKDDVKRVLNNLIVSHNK
Experimental: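 Universal 'all 10-mer' protein binding microarrays (Agilent AMADID 015681) probed with GST-tagged S. cerevisiae TFs (full-length or DBD) made by in vitro transcription/translation (PURExpress), about 100-200 nM. Bound TF was detected with fluorescent anti-GST. Each ungapped 8-mer (which stands for itself and its reverse complement) is scored by the PBM enrichment score (E-score), a modified Wilcoxon-Mann-Whitney statistic from -0.5 to +0.5, computed with the Universal PBM Analysis Suite. Scale: above 0.35 generally sequence-specific binding.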

Sequence	PBM E-score
GTGTCTCA	-0.0996
CAGCCATA	-0.0279
CTAGGGAC	-0.333
GTATCGTA	0.197
GCCTACGA	0.219
ACCACGCC	-0.217
TCGACCGA	-0.143
CAACCCCC	0.0528
CGGCCCGA	-0.275
AACGCAAG	0.106
CAAGTCCA	-0.126
CGAATAAG	-0.176
CAACACGA	0.363
ATGCTAGC	-0.0698
AGTACTGA	-0.258
ACCGGGCG	-0.371
CAATTGGA	-0.241
ATGGTTTC	0.0624
CACATTCA	-0.0265
CCAAAAAC	0.00075
AGATCTCG	-0.259
CAGACCGC	-0.231
ACTATCAG	-0.0545
AATCAGTC	0.101

Sequence	PBM E-score
ACCATTGA	-0.0323
AAGCAAGA	0.0175
TAAGTCAA	-0.0137
GACAATCC	-0.215
CTTATAGA	0.0013
GATACTGC	-0.135
CACCGGGG	-0.179
CCCTGTAG	-0.00088
AGACGTCC	0.0226
ATCTGAAA	-0.0689
CACTCGCA	-0.0906
AAAACTCT	-0.0469
ATAGGCCA	-0.0678
CCCACAAC	-0.208
CGGTGGGA	-0.217
CTAATGGC	-0.154
AGCGTGCA	0.092
ATTCACTG	0.0165
ACATAGTG	0.243
GACTAACC	0.00019
GCTGCTTA	-0.0691
CCGTTTTA	0.101
CCAATTGG	-0.217
AGGTCCTG	-0.216

Sequence	PBM E-score
AAACCACA	0.189
AGAGCTTC	-0.0602
ACAAACCG	0.00705
GACAAGTA	0.0316
CGCTCGAA	-0.042
TAGATAAA	-0.0492
CACTCAAC	0.0132
GGTGGATA	-0.193
ACGAAACG	0.0289
CTTCCTCA	-0.0634
AATTGATA	0.0378
ATGACACA	0.313
AGCGGGAA	-0.114
CCCCTCTC	-0.175
ATGATCGC	-0.0309
CCAGAGCA	-0.12
GATTAGGC	0.233
ACGATTAC	0.286
CATGGCCA	-0.229
CGGATACA	0.098
AATTGACG	0.0363
CCTTAACC	0.0429
CCGCATCA	-0.176
GTTACGCA	0.207

Sequence	PBM E-score
CAGTGGAA	-0.222
CAGTACCA	-0.247
AGATCCTG	-0.0763
CTAAGGTC	-0.126
GGACGAGA	-0.131
CATGGGCG	-0.212
ATTCTATA	-0.0583
TCCTATCA	0.0625
ATACGCTG	0.0535
ACAAAATG	0.23
GGTAGCGA	-0.263
CTCGTTCC	0.111
CTACAAGC	0.238
CAGTTAGA	-0.195
ATTCGTAA	0.183
GATACCGC	-0.091
ATCATGTA	0.392
CGTCACAA	0.0391
CGAGACCA	-0.163
ATGTCATG	0.277
TATACACA	0.364
GCAAGCAC	0.164
